Data reported in publication PMC4336329 (PLoS ONE, 2015).
Among all 310,000 compounds or so, about 2,200 (0.71%) showed an effect of 50% or more. Effects have a minus sign here. The list shows a part of the results.

Target: human ether-à-go-go-related gene (hERG) potassium channel (human, UniProt Q12809)
Test: primary screen, population patch clamp on CHO cells stably expressing hERG

human ether-à-go-go-related gene (hERG) potassium channel, sequence (Q12809 whole entry, looked up): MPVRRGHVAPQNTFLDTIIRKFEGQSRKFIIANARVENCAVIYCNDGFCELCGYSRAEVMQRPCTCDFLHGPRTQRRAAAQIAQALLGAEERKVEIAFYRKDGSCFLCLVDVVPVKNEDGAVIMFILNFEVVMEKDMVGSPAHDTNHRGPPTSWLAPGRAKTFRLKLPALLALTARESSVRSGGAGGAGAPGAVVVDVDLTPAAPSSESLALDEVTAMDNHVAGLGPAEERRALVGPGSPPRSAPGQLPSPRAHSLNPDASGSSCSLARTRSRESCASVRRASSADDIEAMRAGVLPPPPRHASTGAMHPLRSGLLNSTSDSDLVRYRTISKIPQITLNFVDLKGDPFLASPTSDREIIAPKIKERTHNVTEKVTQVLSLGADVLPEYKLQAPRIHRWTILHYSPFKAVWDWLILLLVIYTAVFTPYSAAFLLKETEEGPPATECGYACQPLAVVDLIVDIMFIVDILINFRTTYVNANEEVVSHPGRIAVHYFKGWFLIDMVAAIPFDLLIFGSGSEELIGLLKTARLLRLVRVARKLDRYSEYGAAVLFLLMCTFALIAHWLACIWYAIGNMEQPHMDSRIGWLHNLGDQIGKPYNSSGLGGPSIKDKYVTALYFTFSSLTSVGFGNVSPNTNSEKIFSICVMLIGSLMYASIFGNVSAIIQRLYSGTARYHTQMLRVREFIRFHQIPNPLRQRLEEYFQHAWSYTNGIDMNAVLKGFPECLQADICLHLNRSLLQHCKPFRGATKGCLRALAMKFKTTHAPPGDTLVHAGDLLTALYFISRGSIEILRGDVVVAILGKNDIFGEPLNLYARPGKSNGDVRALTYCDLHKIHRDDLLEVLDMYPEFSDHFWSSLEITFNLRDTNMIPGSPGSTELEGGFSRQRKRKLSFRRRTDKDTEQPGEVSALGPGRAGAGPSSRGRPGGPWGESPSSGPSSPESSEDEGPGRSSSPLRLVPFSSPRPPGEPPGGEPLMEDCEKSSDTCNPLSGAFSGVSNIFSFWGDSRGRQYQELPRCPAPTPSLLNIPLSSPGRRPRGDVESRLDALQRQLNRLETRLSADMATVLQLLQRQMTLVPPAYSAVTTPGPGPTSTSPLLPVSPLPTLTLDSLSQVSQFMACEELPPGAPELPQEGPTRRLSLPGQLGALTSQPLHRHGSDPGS

Compound | hERG current change (%, negative = inhibition) at 1uM [%]
Clc1nc(NC2CCCC2)nc(N2CCOCC2)n1 | 11.8
COc1cccc(NC(=O)c2ccc3c(c2)CCCC3)c1 | 8.93
C[C@@]12CCC=C[C@H]1[C@H](c1ccc(/C=C/c3ccccc3)cc1F)N(Cc1ccccc1)C2=O | 19.1
COc1ccccc1CNC(=O)[C@@H]1CCCN1C(=O)[C@@H]1Cc2ccccc2CN1C(=O)OC(C)(C)C | -0.37
CC1CCCCN1S(=O)(=O)c1ccc(S(=O)(=O)N(CC(=O)Nc2ccccc2)Cc2cccs2)cc1 (centres unmarked) | 30.4
O=[N+]([O-])c1ccc(N2CCN(S(=O)(=O)c3ccc4ccccc4c3)CC2)cc1NCc1ccco1 | 13.4
CN(c1nc2ccccc2n2c(C3CC3)nnc12)S(=O)(=O)c1ccccc1 | 17.6
O=C(Nc1nnc(Cc2ccccc2)s1)c1cccnc1 | 3.62
Cc1cc2[nH]c(=O)c(=O)[nH]c2cc1S(=O)(=O)Nc1cccc(Cl)c1C | -0.643
CC1CSc2ccccc2NC1=S (centres unmarked) | 10.9
O=C(c1ccc2c(c1)OCO2)C1CCCN(C2CCN(CCc3ccccc3)CC2)C1 (centres unmarked) | -38.9
O=S(=O)(NC1CCc2ccccc21)c1ccc(S(=O)(=O)N2CCCC2)cc1 (centres unmarked) | 1.4
COc1cc(C(=O)OCc2cc(=O)c(O)co2)ccc1OC(F)F | 3.75
CCCC(C)NC(=S)Nc1cc(C)cc(C)c1 (centres unmarked) | -14.4
CSC1=N/C(=C\C=C\c2cccs2)C(=O)S1 | 11.1
Fc1ccccc1CSc1nnc(-c2ccccc2)o1 | 1.72
CC(=O)/C(=N\Nc1cccc(Cl)c1)Sc1nnc(-c2ccccc2)n1-c1ccccc1 | 13.7
COc1cccc(/C=N/Nc2ccc([N+](=O)[O-])cn2)c1O | 9.06
CC(=O)c1cccc(NC(=O)Cn2cnc(S(=O)(=O)N3CCCC3)c2)c1 | 15.8
CCc1noc(C)c1C(=O)OCC(=O)NCc1ccccc1 | 13.4
COc1ccc2[nH]c(=O)c(CN(C(=O)c3ccncc3)C(C)C)cc2c1 | -1.97
CCOC(=O)c1cnn(-c2nc(OCC)cc(OCC)n2)c1C | 11.1
CSc1cccc(CN2CCN(Cc3ccc(F)c(F)c3)C(CCO)C2)c1 (centres unmarked) | -14.6

Compound | hERG current change (%, negative = inhibition) at 1uM [%]
CN1CCN(Cc2ccc(Br)s2)CC1 | 13.8
Cc1ccc(OCCCN2CCOCC2)cc1 | 14.8
COc1cccc(C(C(=O)NCc2ccco2)N(Cc2ccco2)C(=O)Cn2nnc3ccccc32)c1 (centres unmarked) | 11.6
Cc1ccc(C(CC(=O)O)NC(=O)CN2C(=O)c3ccccc3C2=O)cc1 (centres unmarked) | 14
N#CCSc1nccc(/C=C/c2ccccc2)n1 | 21.8
N#CC1=C2N=C(N)c3ccccc3N2C2=C(C(=O)CCC2)C1c1cccc(Cl)c1 (centres unmarked) | 10.6
CN(C)CCCN1C(=O)C(=O)/C(=C(/O)c2ccncc2)C1c1cccc(Br)c1 (centres unmarked) | 13.6
COc1cc2c(cc1OC)CN(c1ccc([N+](=O)[O-])c(C(F)(F)F)c1)CC2 | -5.09
C=CCC(CC=C)(C(=O)O)c1ccccc1 | 2.95
COc1ccc(C(=O)COC(=O)c2cc3ccccc3oc2=O)c(OC)c1 | 7.12
CCC1CCCCN1CC(=O)Nc1ccc2c(c1)OCCO2 (centres unmarked) | 12.4
O=C(NCC(=O)N1CCCCCCC1)c1ccco1 | 11.6
OC(CN1CCOCC1)(c1ccccc1)c1ccccn1 (centres unmarked) | 12.7
CN1CCCC(OC(=O)COc2ccccc2)C1.Cl (centres unmarked) | 8.65
Cc1ccc(NC(=O)CSc2nnc(Cc3cccn3C)n2-c2ccc(F)cc2)c(C)c1 | 4.05
Cc1cccc2[nH]c(SCC(=O)O)nc12 | 15
COCCOC(=O)/C(=C/c1ccc(OC(=O)c2ccccc2)cc1)C(C)=O | 9.15
COc1cc(-c2nc3ccccn3c2N)ccc1O | 13.3
O=C(O)/C=C/c1coc2ccc(F)cc2c1=O | 6.71
Cc1cccc2c1nc(-c1ccccc1)n1cnnc21 | -6.84
O=C(Cc1nc2ccccc2[nH]1)NCc1ccco1 | 13.2
CCOc1ccc(NC(=O)C2CCCN(c3c(CC)c(C)nc4ncnn34)C2)cc1 (centres unmarked) | -8.48
COC(=O)CC1=C(C(=O)OC)C(c2ccc3c(c2)OCO3)C(C#N)=C(N)O1 (centres unmarked) | 4.77

Compound | hERG current change (%, negative = inhibition) at 1uM [%]
C/C(Cn1nnc([N+](=O)[O-])n1)=N\NC(=O)c1ccc(C)cc1 | 2.75
CC(=O)c1c(C)[nH]c(C(=O)OC2CCOC2=O)c1C (centres unmarked) | 9.14
O=C(Cn1ccccc1=O)Nc1ccc(Cl)c(S(=O)(=O)N2CCCCC2)c1 | -21.2
COC(=O)c1ccccc1NC(=O)CC(NCc1ccccc1)C(=O)O (centres unmarked) | -20
Cc1nnc(C)n1/N=C/c1cc2ccccc2nc1Cl | 5.71
c1ccc(CN2CCN(c3nc(-c4ccccc4)nc4ccccc34)CC2)cc1 | 12.2
COc1cc(CCC(=O)OCC(=O)Nc2ncc(Cl)cc2Cl)cc(OC)c1OC | -5.63
CCC(C)C(NC(=O)c1ccccc1NC(=O)c1ccco1)C(=O)NC1CCCCC1 (centres unmarked) | 9.74
Clc1ccccc1C1NCc2ccccc2-n2cccc21 (centres unmarked) | 9.74
OC1CC(c2ccco2)NC2(CCCCC2)C1 (centres unmarked) | 6.4
COC(=O)CCCC(=O)N1CCC(n2nccc2NC(=O)CCOc2ccccc2)CC1 | 11.3
CN(Cc1ccccc1)C(=O)CSc1cc(=O)n(C)c2ccccc12 | 1.88
O=C(Nc1nccs1)C1CCN(S(=O)(=O)c2ccc(Cl)c(C(F)(F)F)c2)CC1 | 8.21
O=C(NCc1cccs1)C(=O)c1c[nH]c2ccccc12 | 4.18
O=C(Cc1ccc(Br)cc1)NCc1ccccc1 | 20.8
O=C(CCNc1ccc(Cl)cc1)c1cccs1 | 8.08
O=C(/C=C/c1cccc(Cl)c1)NCc1ccccc1 | 11.5
Cc1cc(C)cc(N(CC(=O)Nc2cc(C)ccc2C)S(=O)(=O)c2c(C)[nH]c(=O)[nH]c2=O)c1 | 4.41
CN(C(=O)COC(=O)c1cc(-c2ccc(Cl)s2)nc2ccccc12)C1CCS(=O)(=O)C1 (centres unmarked) | 6.76
CCNCC(O)COCC(O)CNCC (centres unmarked) | 14.7
C/C(=N\N=C(/N)SC1CC(=O)N(c2ccccc2)C1=O)c1cccs1 (centres unmarked) | 9.77
Cc1ccc2c(c1)C(c1ccc(F)cc1)N(C(=O)c1ccccc1Br)CC(=O)N2 (centres unmarked) | 9.64
CCN(CC)CCNCC(=O)N1c2ccccc2CCc2ccc(NC(=O)OC)cc21.Cl | 10.7

Compound | hERG current change (%, negative = inhibition) at 1uM [%]
Cc1cccc(OCc2nnc(SCC(=O)N3CCCC3)n2C)c1 | -5.15
CCOC(=O)/C=C/C(=O)Nc1ccc(S(=O)(=O)N2CCCCCC2)cc1 | 4.35
CCCCCn1c(SCCOCC)nc2c1c(=O)[nH]c(=O)n2C | -7.34
OC(COc1ccc(OCc2ccccc2)cc1)CN1CCCCC1 (centres unmarked) | -5.55
CN(CC(=O)Nc1cccc2ccccc12)C(=O)/C=C/c1cccs1 | -0.449
CCS(=O)(=O)c1ccc2c(c1)N(S(C)(=O)=O)CC(C(=O)NC1CC1)O2 (centres unmarked) | 16
Cc1ccc(C2(C)NC(=O)N(CC(=O)NC(C)c3ccccc3)C2=O)cc1 (centres unmarked) | 11.3
Cc1cccc(Sc2nc(-c3ccccc3)ncc2C(=O)O)c1 | 10.3
O=S(=O)(c1ccc2c(c1)CCCN2)N1CCCC1 | 4.39
CCCN(C(=O)Cn1nc(C)c([N+](=O)[O-])c1C)c1c(N)n(Cc2ccccc2)c(=O)[nH]c1=O | 13.1
O=C(COC(=O)COc1ccc(Cl)cc1)NCCNC(=O)COC(=O)COc1ccc(Cl)cc1 | 3.11
O=C(O)COC(=O)Cc1ccccc1Nc1c(Cl)cccc1Cl | 17.3
O=S(=O)(c1ccc(NC(=S)Nc2ccccc2)cc1)N1CCOCC1 | 7.12
CCCCOc1cccc(C2/C(=C(/O)c3ccc4c(c3)CC(C)O4)C(=O)C(=O)N2CCN2CCOCC2)c1 (centres unmarked) | 13.8
Cc1cc(=O)[nH]c(N/N=C/c2ccc3c(c2)OCCO3)n1 | 8.77
Cc1cc(-n2c(C)cc(C(=O)COC(=O)CN=C3NS(=O)(=O)c4ccccc43)c2C)no1 | 11.6
O=C(CCc1c[nH]c2ccccc12)OCC(=O)N1CCN(S(=O)(=O)c2ccccc2)CC1 | -14.2
CCCCCc1nc2ccccc2c(=O)n1-c1ccccc1[N+](=O)[O-] | 14.1
CC[C@H](C)C1NC(=O)[C@H](CC(=O)O)NC(=O)c2cc([N+](=O)[O-])cc(I)c2NCCC(C(N)=O)NC1=O (some centres unmarked) | 26.2
CN1CCN(c2ccc(-c3cccc(NC(=O)COc4ccccc4)c3)nn2)CC1 | -14.2
